From paper PMC4336329 (PLoS ONE, 2015)
The whole screen tested about 310,000 compounds, of which about 2,200 (0.71%) showed an effect of 50% or more. Effects have a minus sign here. This is one part of the list.

Each compound was assayed against human ether-à-go-go-related gene (hERG) potassium channel (human, UniProt Q12809) (assay: primary screen, population patch clamp on CHO cells stably expressing hERG).
human ether-à-go-go-related gene (hERG) potassium channel, sequence (Q12809 whole entry, looked up): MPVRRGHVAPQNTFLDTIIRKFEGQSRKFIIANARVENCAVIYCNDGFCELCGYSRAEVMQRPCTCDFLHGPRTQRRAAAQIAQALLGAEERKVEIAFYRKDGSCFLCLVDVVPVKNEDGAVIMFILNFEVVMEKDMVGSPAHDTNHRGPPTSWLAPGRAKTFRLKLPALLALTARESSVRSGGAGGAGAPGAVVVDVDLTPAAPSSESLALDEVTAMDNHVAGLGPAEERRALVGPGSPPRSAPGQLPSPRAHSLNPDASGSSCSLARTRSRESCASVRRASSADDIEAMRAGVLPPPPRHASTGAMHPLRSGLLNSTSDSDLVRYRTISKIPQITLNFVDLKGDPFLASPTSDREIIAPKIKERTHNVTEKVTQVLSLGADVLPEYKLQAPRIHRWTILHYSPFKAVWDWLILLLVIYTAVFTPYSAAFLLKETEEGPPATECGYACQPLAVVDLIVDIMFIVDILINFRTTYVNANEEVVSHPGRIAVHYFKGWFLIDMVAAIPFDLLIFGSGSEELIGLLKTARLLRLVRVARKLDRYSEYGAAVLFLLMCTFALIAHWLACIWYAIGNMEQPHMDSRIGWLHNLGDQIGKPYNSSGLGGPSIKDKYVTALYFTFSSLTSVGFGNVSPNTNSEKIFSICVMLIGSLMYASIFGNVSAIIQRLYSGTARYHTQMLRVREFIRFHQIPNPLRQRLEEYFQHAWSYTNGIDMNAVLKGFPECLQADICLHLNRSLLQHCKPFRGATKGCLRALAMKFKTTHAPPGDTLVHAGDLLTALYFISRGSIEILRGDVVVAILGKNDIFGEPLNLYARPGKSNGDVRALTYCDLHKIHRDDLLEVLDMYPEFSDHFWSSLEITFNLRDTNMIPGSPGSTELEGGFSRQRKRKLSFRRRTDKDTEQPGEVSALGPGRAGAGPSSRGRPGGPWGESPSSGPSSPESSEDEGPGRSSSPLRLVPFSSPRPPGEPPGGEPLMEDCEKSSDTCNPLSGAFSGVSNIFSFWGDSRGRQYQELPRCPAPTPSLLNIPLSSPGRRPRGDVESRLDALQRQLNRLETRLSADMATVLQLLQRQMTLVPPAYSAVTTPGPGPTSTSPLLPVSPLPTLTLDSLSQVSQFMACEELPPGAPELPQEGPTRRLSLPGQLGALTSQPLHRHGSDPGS

Structure (SMILES)	hERG current change (%, negative = inhibition) at 1uM [%]
O=C(N[C@@H]1CCC(=O)N(CC[C@H](Sc2ccc(Br)cc2)c2ccccc2)CC1)OCc1ccccc1	15.5
CCSc1nc2ccccc2n1S(=O)(=O)c1ccccc1	12.1
Cc1ccccc1CS(=O)(=O)Cc1ccc(C(=O)NCc2cccnc2)o1	14.1
Cc1cccc(N(Cc2ccccc2)C(=O)c2ccc(F)c(S(=O)(=O)N3CCOCC3)c2)c1	-10.3
CC1(OC(=O)CCc2ccccc2)C(=O)C=C2C=C(c3ccsc3)OC=C2C1=O (stereo not shown)	5.48
COc1ccc(-c2nnc(NC(=O)C3CCCO3)s2)cc1 (stereo not shown)	12.9
O=C(CSc1nnc(-c2ccccc2Br)o1)Nc1nncs1	-63.5
COc1ccccc1C1CCN(C(=O)c2ccccc2)CC1	11.9
O=C(Nc1ccccc1)NN(C(=O)CCl)c1ccccc1	20.6
CCC(C)OC(=O)c1cc(C)nc2c(Br)cc(Br)cc12 (stereo not shown)	8.48
CCNc1nc(C#N)nc2c1ncn2-c1cc(F)cc(F)c1	14.8
Cc1n[nH]c(C)c1S(=O)(=O)Nc1ccc2c(c1)OCCO2	8.55
CCN(CC)CCNC(=O)c1ccc(Sc2ccc(C)cc2)c(NC(C)=O)c1	-4.4
COc1ccc(C(=O)Nc2ccc(Cl)cc2C(=O)NCc2ccco2)cc1	-3.96
O=C(NN1C(=O)c2ccccc2C1=O)c1ccc2c(c1)C(=O)N(CC1CCCO1)C2=O (stereo not shown)	12.3
Cc1cc(C)c2c(CC(=O)NN(C)C)coc2c1	3.51
COc1ccc(-n2cnc3cc(C(=O)NCC4CCCO4)ccc32)cc1 (stereo not shown)	-6
CCOC(=O)COc1cc(O)c2c(=O)cc(-c3ccccc3)oc2c1	4.41
COC(=O)[C@]1(Cc2ccccc2)N[C@H](c2ccc(-c3cccc(Cl)c3)cc2)[C@@H]2C(=O)N(C)C(=O)[C@@H]21.O=C(O)C(F)(F)F	4.63
O=C(CCNC(=O)c1ccco1)Nc1ccc(OC(F)F)cc1	-1.99
O=C(COC(=O)c1ccccc1NCCO)NCC1CCCCC1	9.32
O=C(NCC1CCN(S(=O)(=O)c2ccccc2)CC1)Nc1ccc(F)cc1	5.34
Cc1cc(C)cc(OCC(O)CN2CCC(CN3C(=O)c4cccc5cccc(c45)C3=O)CC2)c1.Cl (stereo not shown)	-41.7
CCc1cc(-c2n[nH]c(=S)n2-c2ccccc2C)cs1	-9.81
Cc1ccc(S(=O)(=O)N2CCCCC2)cc1NC(=O)COC(=O)Cc1cccc(C(F)(F)F)c1	9.01
CCC(=O)Nc1cc(C(=O)O)ccc1S(=O)(=O)c1ccc(C)cc1	9.77
CCOc1cc(/C=C/c2nc3ccccc3c(=O)[nH]2)ccc1O	14.4
CCC(=O)Oc1ccc2c(c1)O/C(=C\c1ccco1)C2=O	12.2

Structure (SMILES)	hERG current change (%, negative = inhibition) at 1uM [%]
COc1ccc2[nH]c(=O)c(CN(Cc3cccnc3)C(=S)NCC3CCCO3)cc2c1 (stereo not shown)	13
CCOC(=O)C1CCCN(CCc2ccccc2)C1 (stereo not shown)	11.2
COC(=O)N1CCN(C(=O)Cc2ccc(Cl)c(Cl)c2)C(CN2CCCC2)C1.O=C(O)/C=C/C(=O)O (stereo not shown)	-1.42
CN(CC(=O)O)S(=O)(=O)c1ccc2oc3ccccc3c2c1	10.5
CNc1nc(-c2cccs2)cc(C(F)(F)F)c1C#N	9.8
O=C(NCc1cccnc1)c1ccc(Cn2cc(C(F)(F)F)ccc2=O)cc1	6.29
COc1ncnc2c1oc1nc(C(C)C)c3c(c12)CC(C)(C)OC3	12.2
Cc1ccccc1Nc1nc(-c2sc(NC(=O)c3ccccc3)nc2C)cs1	7.9
CCN(CC)CCN1C(=O)C(O)=C(C(C)=O)C1c1ccc(OC)c(OC)c1 (stereo not shown)	4
COC(=O)C1=NN[C@H](C(=O)OC)[C@H]1c1ccccc1	11.3
Cc1oc(-c2ccc(Cl)cc2)nc1CS(=O)CC(=O)N1CCC2(CC1)OCCO2 (stereo not shown)	4.82
CCCC(=O)Nc1cc(C(=O)N2CCC3(CC2)OCCO3)ccc1S(=O)(=O)c1ccc(C)cc1	0.8
CCOc1cccc(N(C(=O)C2COc3ccccc3O2)C(C(=O)NC2CCCCC2)c2ccc(O)cc2)c1 (stereo not shown)	9.36
CCCC12CN3CC(C)(CN(C1)C31C(=O)Nc3ccc(C)cc31)C2=O (stereo not shown)	3.54
CNC(=S)N1CCN(S(=O)(=O)c2ccc3ccccc3c2)CC1	2.89
O=C(NCCN1C(=O)S/C(=C\c2ccc(Cl)c(Cl)c2)C1=O)c1cnccn1	-0.401
Cc1cnc(NC(=O)CSc2ncc(-c3ccccc3)n2Cc2ccco2)s1	15.4
COc1ccc(-c2nnc(SCc3c(C)noc3C)n2N)cc1OC	1.35
CN1CCN(S(=O)(=O)c2cc([N+](=O)[O-])ccc2Cl)CC1	8.4
Cc1ccc(N=Cc2cc(C)n(C3CCCC3)c2C)cc1	9.1
N#Cc1cc([N+](=O)[O-])ccc1Oc1cccc(/C=N/NC(=O)c2ccc(Cl)cc2)c1	0.885
COc1cccc(C2CC(c3cccs3)Nc3ncnn32)c1 (stereo not shown)	3.6
Cc1cc(-c2ccccc2)nc(SCc2ccc(C(=O)O)cc2)n1	22.3
CC(O)c1nc2ccc(C(=O)O)cc2[nH]1.Cl (stereo not shown)	9.69
Clc1ccc(OCc2cn3ccccc3n2)c2ncccc12	3.63
Cc1nnc(SCC(=O)Nc2ccc3c(c2)OCO3)n(N)c1=O	11.9
CC(=O)N1CCc2cc(Br)cc(S(=O)(=O)NCCCN(C)Cc3ccccc3)c21	4.39
